# Measured values as given in the BET-seq Pho4 binding data (Le et al. 2018).
# The list shows a part of the results. The energies were worked out here from pooled read counts, against the library average; single values are noisy.
# Biological target: T1, Pho4 (S. cerevisiae) (UniProt P07270)
# T1 sequence: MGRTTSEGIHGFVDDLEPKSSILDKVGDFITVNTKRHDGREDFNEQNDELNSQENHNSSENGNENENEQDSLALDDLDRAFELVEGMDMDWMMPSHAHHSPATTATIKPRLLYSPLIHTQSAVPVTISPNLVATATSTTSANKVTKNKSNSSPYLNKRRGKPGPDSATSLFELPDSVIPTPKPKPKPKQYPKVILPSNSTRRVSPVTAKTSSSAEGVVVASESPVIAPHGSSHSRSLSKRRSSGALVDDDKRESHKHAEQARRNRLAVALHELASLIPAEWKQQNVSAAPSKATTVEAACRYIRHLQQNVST
# Assay: relative binding free energy (BET-seq); higher = weaker binding
# Conditions: reference: library average
row,Sequence,relative binding free energy [kcal/mol]
1,GACTGCACGTGAAGGG,0.25
2,TGTTGCACGTGTTTTA,-0.03
3,GGGGACACGTGTTTTG,0.03
4,AATTTCACGTGTTTAT,0.33
5,TTATTCACGTGCTGTT,0.11
6,TGAGTCACGTGGCCGG,-0.06
7,GGCGTCACGTGTTTGC,0.23
8,TTGAGCACGTGTGCGA,-0.08
9,TCTGACACGTGGTGGT,0
10,AGATGCACGTGTAGAT,0.18
11,AATGTCACGTGCAGTT,0.18
12,GGTGACACGTGTACAG,0.05
13,GTTCGCACGTGTAATT,0.24
14,GCGTGCACGTGTGTTA,-0.04
15,CAATGCACGTGGTTTG,-0.08
16,AGTCGCACGTGGCGTG,-0.21
17,TTGGGCACGTGGTCAT,-0.17
18,GCGGGCACGTGCTGGT,-0.2
19,AGGGTCACGTGCGTAA,0.09
20,GATTTCACGTGTAGCG,0.34
21,TGAGACACGTGTGTAG,0.05
22,TTAGGCACGTGAGTTC,0.2
23,AGGGCCACGTGTAGGG,-0.11

row,Sequence,relative binding free energy [kcal/mol]
1,TGGGCCACGTGGCGTG,-0.24
2,AGTGACACGTGTGTTC,0.03
3,ATTGGCACGTGCAAGG,-0.21
4,TCTTTCACGTGTGTGG,0.38
5,ATATGCACGTGAATGT,0.2
6,TGAGTCACGTGAGTGA,0.2
7,TTCGACACGTGAGGGT,0.28
8,TGAATCACGTGTGGTT,0.25
9,TTTTGCACGTGGTGAA,0.01
10,GGCCTCACGTGTGAGG,0.4
11,AAATTCACGTGTAATG,0.22
12,ATTGGCACGTGATATG,-0.07
13,TGTACCACGTGGATTG,-0.05
14,AAGGACACGTGGTTAT,0.04
15,ACGGGCACGTGTTTTT,0.1
16,CTGAGCACGTGTTCGT,-0.14
17,GGGGACACGTGGGATG,0.02
18,ATATACACGTGGGTGG,-0.08
19,GGTTTCACGTGTCCAG,0.43
20,TTCTACACGTGGGGTG,-0.14
21,TTATGCACGTGGCGGG,-0.2
22,GTACTCACGTGGGAAG,0.23
23,ATTACCACGTGGTGGT,-0.15

row,Sequence,relative binding free energy [kcal/mol]
1,ATGACCACGTGTTAGT,0.04
2,ACAAGCACGTGAGGGT,0.1
3,TATAACACGTGGGAGT,-0.03
4,AATGGCACGTGCTGCT,-0.07
5,GAAGCCACGTGCGGTG,0.08
6,TTTGACACGTGCGCGG,-0.03
7,GAGAGCACGTGCGTGG,-0.16
8,GAGGCCACGTGGTGTA,-0.13
9,GTTCGCACGTGCAGGG,0.07
10,TTTGCCACGTGGTATG,-0.07
11,CAGGTCACGTGTTTGT,0.11
12,TCTGGCACGTGAGGCG,0.17
13,GTTATCACGTGCGAGG,0.26
14,TGATCCACGTGTAAGG,0.12
15,ATGAACACGTGGTGTG,-0.04
16,GGGCACACGTGGGCGA,-0.08
17,ATTAACACGTGAATTT,0.17
18,AGGGTCACGTGTGCTA,0.18
19,TTGGTCACGTGTTCTC,0.14
20,TAAGTCACGTGAGTAA,0.36
21,TAACGCACGTGAGGTG,0.05
22,TTACTCACGTGTGATG,0.27
23,GTGTGCACGTGGTGGG,-0.07

row,Sequence,relative binding free energy [kcal/mol]
1,CTTGGCACGTGGTGTG,-0.08
2,TTAGACACGTGTATAG,-0.04
3,TGAGACACGTGTTGAA,0.13
4,TTATACACGTGTAAAT,0.05
5,GGAAGCACGTGAGAGT,0.22
6,GGTGACACGTGTATTT,0.19
7,ATTGTCACGTGTAGGG,0.08
8,GGGTGCACGTGGGGGA,-0.16
9,CGAAACACGTGAGGGT,0.17
10,GTTTGCACGTGCATAT,-0.15
11,TGTCACACGTGAGGTG,0.21
12,TTCTGCACGTGATGTT,0.12
13,GATATCACGTGAAGGG,0.41
14,ATGCTCACGTGTTGTG,0.07
15,TAGTGCACGTGTGAAA,0.06
16,GCGGACACGTGGGCGG,-0.08
17,GTAAGCACGTGAGTTG,0.14
18,GGTGGCACGTGTCCGT,-0.11
19,TGCGCCACGTGGGTGG,-0.29
20,TGGATCACGTGAGTCG,0.32
21,AGGCTCACGTGGGCGA,0.21
22,TTGTTCACGTGAGGTC,0.4
23,TTGATCACGTGTGTGT,0.16

row,Sequence,relative binding free energy [kcal/mol]
1,CGGAACACGTGGGGAG,-0.06
2,AGTGTCACGTGGAAGC,0.1
3,GTGGTCACGTGTCGGC,0.12
4,CGTGACACGTGTTTTG,0.07
5,GCCAGCACGTGGGGGG,-0.35
6,TAAAGCACGTGGTGGG,-0.06
7,TTCTTCACGTGGATAG,0.37
8,CGTGTCACGTGCTTAT,0.17
9,ATCGACACGTGGGTAG,-0.13
10,TGGTCCACGTGAATAG,0.3
11,ATATGCACGTGAGAGA,0.27
12,TTACACACGTGGGGGA,-0.07
13,TGTGACACGTGGGTAG,-0.07
14,ATATTCACGTGGGGAA,0.04
15,CGAGTCACGTGTCGGT,0.2
16,GTTTGCACGTGGGATC,-0.04
17,TCTTTCACGTGATAGG,0.23
18,TAAGGCACGTGCGGGG,-0.3
19,CTAGGCACGTGTTCGT,-0.09
20,TTTAGCACGTGTGTCG,0.01
21,TAACACACGTGGATGT,0.22
22,TTCTTCACGTGTGGCG,0.2
23,TGGGCCACGTGGGTGC,-0.18
